# Test results as given in publication PMC4336329 (PLoS ONE, 2015).
# Out of some 310,000 compounds screened, about 14,000 (4.5%) showed an effect of 50% or more. Effects have a minus sign here. The list shows a part of the results.
# Target: human ether-à-go-go-related gene (hERG) potassium channel (human, UniProt Q12809)
# Experiment: primary screen, population patch clamp on CHO cells stably expressing hERG
# 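Note: peak tail current of the secondary pulse compared with the same well before compound.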
# Sequence of human ether-à-go-go-related gene (hERG) potassium channel (Q12809 whole entry, looked up): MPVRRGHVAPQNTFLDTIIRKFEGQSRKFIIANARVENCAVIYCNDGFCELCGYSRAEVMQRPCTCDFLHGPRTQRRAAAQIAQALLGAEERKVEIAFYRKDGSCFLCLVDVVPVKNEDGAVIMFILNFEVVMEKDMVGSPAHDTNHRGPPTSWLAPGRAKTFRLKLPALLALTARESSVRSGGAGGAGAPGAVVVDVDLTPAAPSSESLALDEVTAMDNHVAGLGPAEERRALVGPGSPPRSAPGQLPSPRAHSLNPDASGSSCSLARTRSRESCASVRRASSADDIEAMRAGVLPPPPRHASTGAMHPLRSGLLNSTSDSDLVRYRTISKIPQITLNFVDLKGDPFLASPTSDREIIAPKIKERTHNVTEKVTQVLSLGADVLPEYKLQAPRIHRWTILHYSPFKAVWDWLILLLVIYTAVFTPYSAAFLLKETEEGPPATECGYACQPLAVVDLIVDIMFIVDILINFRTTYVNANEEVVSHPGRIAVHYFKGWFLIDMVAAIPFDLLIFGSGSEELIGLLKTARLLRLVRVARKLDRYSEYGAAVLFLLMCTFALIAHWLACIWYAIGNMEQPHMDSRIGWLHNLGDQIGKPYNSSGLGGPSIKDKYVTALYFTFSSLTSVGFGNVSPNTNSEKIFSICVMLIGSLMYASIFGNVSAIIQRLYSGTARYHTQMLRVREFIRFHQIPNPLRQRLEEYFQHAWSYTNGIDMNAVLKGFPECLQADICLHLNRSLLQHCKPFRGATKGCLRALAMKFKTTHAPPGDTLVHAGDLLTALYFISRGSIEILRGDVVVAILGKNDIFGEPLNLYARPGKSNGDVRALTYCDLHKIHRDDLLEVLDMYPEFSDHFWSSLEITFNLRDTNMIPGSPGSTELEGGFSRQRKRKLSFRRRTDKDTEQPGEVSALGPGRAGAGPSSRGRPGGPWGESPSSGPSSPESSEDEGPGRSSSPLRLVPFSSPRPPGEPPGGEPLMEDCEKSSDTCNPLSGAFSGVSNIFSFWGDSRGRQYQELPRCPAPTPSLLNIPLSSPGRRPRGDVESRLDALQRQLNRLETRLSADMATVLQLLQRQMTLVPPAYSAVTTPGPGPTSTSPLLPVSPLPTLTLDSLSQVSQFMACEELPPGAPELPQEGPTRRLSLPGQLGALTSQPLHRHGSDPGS
row,SMILES,"hERG current change (%, negative = inhibition) at 10uM [%]"
1,CCCn1c(N)c(N(C)C)c(=O)n(CC(=O)Nc2ccc(OC(F)(F)F)cc2)c1=O,-23.4
2,O=C(CSc1nnc(-c2ccco2)n1Cc1ccccc1)NC(=O)NCc1ccco1,-74.7
3,CCN(CC)C(=O)CSc1ncnc2sccc12,0.201
4,NC(=O)CNC(=O)C1CCCc2c1[nH]c1ccc(Cl)cc21 (stereo not shown),8.8
5,COc1ccc(S(=O)(=O)N2CCCCC2)cc1NC(=O)C1CSC2(C)CCC(=O)N12 (stereo not shown),-20.1
6,COc1ccc(N2CCN(C(C)C(=O)N3CCc4ccccc43)CC2)cc1 (stereo not shown),-17.7
7,O=C(Oc1ccc(OC(=O)c2ccco2)c(S(=O)(=O)c2ccc(Br)cc2)c1)c1ccco1,2.61
8,CCOc1ccc(S(=O)(=O)Nc2cc(S(=O)(=O)N3CCOCC3)ccc2OC)cc1,-3.5
9,O=[P+](Cc1ccccc1)Cc1ccccc1,-0.465
10,COC(=O)C1C(c2ccc(OC)cc2)Nc2nnc(C(F)(F)F)n2C1(C)O (stereo not shown),10.3
11,CCN(CC)c1ccc(CNC23CN4CN(CN(C4)C2)C3)cc1,12.5
12,O=C(NC(Nc1cc(C(F)(F)F)ccc1Cl)C(=O)c1ccccc1)c1ccccc1 (stereo not shown),13
13,COC(=O)c1ccnc(SCC(=O)c2ccccc2)c1,3.97
14,CCN(Cc1ccccc1)C(c1cc2cc(C)ccc2[nH]c1=O)c1nnnn1CCOC (stereo not shown),-6.03
15,COc1ccc2nc(NC(=O)Nc3ccccc3OC)sc2c1,24.3
16,Cc1cccc(C)c1-n1c(C)nn(CC2CC2)c1=O,7.87
17,CCc1nnc(NC(=O)CCCSc2nc3ccccc3[nH]2)s1,-1.78
18,CC(=O)Nc1ccn(-c2ccccc2)n1,8.89
19,COc1cccc(OCC(O)CN2CCC(C)CC2)c1.Cl (stereo not shown),-12.3
20,O=C(Nc1ccccn1)C1CCCN1S(=O)(=O)c1ccc(Cl)cc1 (stereo not shown),-21.4
21,CN(C)C(CNC(=O)CCc1c[nH]c2ccccc12)c1ccccc1 (stereo not shown),-5.7
22,O=C(COc1ccccc1)N/N=C/c1ccc2c(c1)OCO2,29.1
23,Clc1ccc(CNc2ccc(N3CCN(Cc4ccccc4)CC3)cc2)cc1,2.19
24,CN=C1S/C(=C\c2ccc(N3CCOCC3)c(F)c2)C(=O)N1C,21.3
25,Cc1nnsc1-c1nnc(SCC(=O)c2ccc(C#N)cc2)n1C1CC1,-28.9
26,CCCCOc1ccccc1P(=O)(O)CP(=O)(c1ccccc1)c1ccccc1,-3.64
27,CN(C)c1ccc(NC(=O)c2cnsn2)cc1,24.8
28,O=C(CCc1nc2ccccc2c(=O)[nH]1)N1CCN(S(=O)(=O)c2cccc([N+](=O)[O-])c2)CC1,5.1

row,SMILES,"hERG current change (%, negative = inhibition) at 10uM [%]"
1,Cc1n[nH]c(C)c1Sc1ccccc1N=Cc1cc([N+](=O)[O-])ccc1O,-23.8
2,CCC(=O)O[C@]1(C(=O)SCF)[C@H](C)C[C@H]2[C@@H]3C[C@H](F)C4=CC(=O)C=C[C@]4(C)[C@@]3(F)[C@@H](O)C[C@@]21C,0.475
3,CC(C)SC1=NC(C)(C)C=C(/C=C/c2ccc(Cl)cc2Cl)N1,12.6
4,COc1cc(C(=O)Oc2cccc(/C=N/NC(=O)c3cccnc3)c2)cc(OC)c1OC,-1.17
5,COc1ccc(C(=O)NCCc2c[nH]c3ccccc23)cc1S(=O)(=O)N1CCCCC1C (stereo not shown),-12
6,N/C(=N\NS(=O)(=O)c1cc(C(F)(F)F)cc(C(F)(F)F)c1)c1ccccn1,-17.5
7,CC(/C=C/c1ccco1)=N/NC(=O)Cc1cccs1,-8.68
8,COCCNC(=O)Cn1c(=O)n(CCCC(=O)NCc2ccc3c(c2)OCO3)c(=O)c2sccc21,-0.00342
9,Cc1ccc(CSCC(=O)N/N=C/c2sccc2C)cc1,11.5
10,CC(C1CC1)N(C(=O)c1ccccc1[N+](=O)[O-])c1ccccc1 (stereo not shown),1.39
11,COc1cc(-c2nc3ccc4ccccc4c3c3c2CCC3)cc(OC)c1OC,3.31
12,CC1(C)N=C(N)NC(Nc2ccccc2)=N1,2.96
13,C/C(=N\NC(=O)c1nn(C)c(C)c1Br)c1cccc(NC(=O)c2ccoc2C)c1,-23.2
14,CCCOc1ccc(N2C(=O)CC(N3CCN(c4ccc([N+](=O)[O-])cc4)CC3)C2=O)cc1 (stereo not shown),-73.8
15,CC(C)CN(CC(C)C)S(=O)(=O)N1CCC(C(=O)NCc2cccnc2)CC1,10.1
16,Cc1ccc(Nc2nc(CSc3nnc(-c4ccc(F)cc4)n3C)cs2)cc1,-46.2
17,CCOc1ccc(N(CC(=O)NCC(C)C)S(C)(=O)=O)cc1,9.92
18,O=C(Nc1ccc(NC(=O)c2ccncc2)cc1)c1ccncc1,24.2
19,CCOC(=O)C1CCN(Cc2nc3ccc(Cl)cc3n2CCO)CC1,-34.6
20,COC(=O)c1sc(Nc2ccccc2)nc1C,6.13
21,COc1ccc(/C(C)=N/NC(=O)c2cc(C)[nH]n2)c(OC)c1,1.33
22,CN(C)S(=O)(=O)c1cc(NC(=O)CSc2nn(-c3ccc(Cl)cc3)c(=S)s2)ccc1Cl,-0.516
23,N/C(=N\OS(=O)(=O)c1ccc2ccccc2c1)c1ccncc1,-35.6
24,Cc1cccc2c(N=Nc3ccccc3)c(O)[nH]c12,14.4
25,COc1ccc(C(=O)COC(=O)c2cccnc2Cl)c(OC)c1,0.265
26,C/C(=N\Nc1ccc([N+](=O)[O-])cc1)c1ccc(-n2nncc2C)cc1,2.25
27,CC(C(=O)Nc1ccc(S(=O)(=O)N2CCCCC2)cc1)N1CCN(c2ccccn2)CC1 (stereo not shown),11.5
